Results: PubChem BioAssay AID463173 (ICCB-Longwood Screening Facility, Harvard Medical School, 2010)
Screen size: about 52,000 compounds; about 1,700 (3.3%) were called active. No stated cut-off is given here; in the data, active means survival mostly below about 52% (no sharp cut-off); inactive means mostly above about 56%. The list shows a part of the results.

test system: Wild type; experiment: S. aureus survival, RN4220 and DeltatarO strains – OD600, teichoic acid synthesis inhibitors, primary screen (AID 463173); settings: S. aureus RN4220 wild type/DeltatarO growth, OD600, 18 h, active compounds read low, screened at 18.75 µg/mL (by protocol)

Structure (SMILES) | survival
O=C(CS(=O)(=O)c1ccc(Cl)cc1)Nc1nc2ccc(Br)cc2s1 | inactive: 53%
CCc1ccc(NC(=O)C2(c3cccs3)CCOCC2)cc1 | inactive: 73%
Cc1oc2ncn(CC(C)C)c(=O)c2c1C(=O)N1CCN(c2ccccc2F)CC1 | inactive: 63%
Cc1cc(C)c(NC(=O)CN(c2ccccc2)S(=O)(=O)N(C)C)c(C)c1 | inactive: 78%
OC1CCNC(=S)N1c1ccccc1 (stereo not drawn) | inactive: 97%
O=C(Nc1ccc2oc(-c3ccc4ccccc4c3)nc2c1)c1cccc(Cl)c1Cl | inactive: 78%
CSc1ccc(CCNC(=O)CN2C(=O)COc3ccc(S(=O)(=O)N4CCCC4)cc32)cc1 | inactive: 122%
CCOc1ccc(NC(=O)c2cnn3c2NC(c2ccccc2)=CC3c2cccc(OC)c2OC)cc1 (stereo not drawn) | inactive: 85%
Clc1ccc(-c2nnn3c2nc(N2CCCCC2)c2ccccc23)cc1 | inactive: 45%
COC(=O)c1sc2cccc(F)c2c1S(=O)(=O)NCc1ccc(F)cc1 | inactive: 101%
COc1ccc(C2CC(=O)N(Cc3cccc(C)c3)c3c2c(C)nn3-c2nc(C)cc(C)n2)c(OC)c1 (stereo not drawn) | inactive: 89%
Cc1ccccc1-n1c(=O)c2ccccc2n(Cc2ccc(F)cc2)c1=O | inactive: 87%
CCOC(=O)c1cnc2c(Cl)c(Cl)ccc2c1Nc1ccc(N(C)C)cc1 | inactive: 80%
O=C(Nc1ccc(F)cc1)c1ncn(-c2ccccc2)n1 | inactive: 81%
Fc1cccc(F)c1CSc1nc2ccccc2[nH]1 | inactive: 112%
COc1ccc(-n2c(=O)c3c4c(sc3n(Cc3c(F)cccc3Cl)c2=O)CN(C(C)=O)CC4)cc1OC | inactive: 73%
CCOC(=O)c1ccccc1NC(=O)CN(c1cc(C(F)(F)F)ccc1Cl)S(C)(=O)=O | inactive: 74%
Cc1ccc(-c2noc(CN(C(=O)c3ccc(C(C)(C)C)cc3)C(C)C)n2)cc1 | active: -1%
COc1ccc(N2CCN(CC(=O)N(C)C)CC2)cc1 | inactive: 96%
O=S(=O)(c1ccccc1)n1nc(-c2ccc(Cl)cc2)nc1NCc1ccc(F)cc1 | inactive: 53%
COc1cccc(NC(=O)Cn2c(=O)c3cccn3c3ccc(F)cc32)c1 | inactive: 77%
O=C(Cn1ccc2cc(S(=O)(=O)N3CCCCCC3)ccc21)NCCc1ccccc1Cl | inactive: 72%

Structure (SMILES) | survival
Cc1ccc(CCNC(=O)CCS(=O)(=O)c2ccc3c(c2)oc(=O)n3C)cc1 | inactive: 91%
COc1cccc(N2CCN(S(=O)(=O)c3ccc(-c4cc(C(F)(F)F)on4)s3)CC2)c1 | inactive: 78%
CCCCSCCCNC(=O)c1cn(CC)c2ccc(S(=O)(=O)N(C)C3CCCCC3)cc2c1=O | inactive: 35%
COc1cccc(-c2nc(SCC(=O)NCc3ccccc3)c3c(=O)n(C)c(=O)n(C)c3n2)c1 | inactive: 95%
Cc1noc(NS(=O)(=O)c2ccc(NC(=O)COc3ccccc3Br)cc2)c1C | inactive: 74%
CCOc1ccccc1NC(=O)Nc1ccccc1OCc1cc(=O)n2ccccc2n1 | inactive: 78%
COc1cc(Cl)c(C)cc1NC(=O)Cn1cnc2sc(C)c(S(=O)(=O)N3CCCCC3)c2c1=O | inactive: 136%
CCOC(=O)c1scc(-c2ccc(C)cc2)c1S(=O)(=O)Nc1cc(C)ccc1C | inactive: 72%
Cc1ccc(CCNC(=O)c2ccc(CS(=O)(=O)Cc3ccc(Cl)cc3)o2)cc1 | inactive: 72%
CN(CC(=O)NCc1ccc(Cl)cc1)S(=O)(=O)c1ccc2c(c1)c(=O)n(C)c(=O)n2C | inactive: 81%
CCOc1ccccc1NC(=O)Cn1c(=O)n(-c2ccc(C)c(C)c2)c(=O)c2c(C)c(C(=O)N(C)C)sc21 | inactive: 124%
CCS(=O)(=O)c1c(S(=O)(=O)CC)c2cc(C(C)(C)C)ccn2c1C(=O)c1ccc(F)cc1 | inactive: 85%
Cc1cc2c(cc1C)NC(CC(=O)Nc1cccc(C)c1C)C(=O)N2 (stereo not drawn) | inactive: 90%
Cc1nc2ccccc2c2nc(N)nn12 | inactive: 113%
O=C(NCc1ccc(Cl)cc1)C(=O)NCC(c1cccnc1)N1CCN(c2ccccc2)CC1 (stereo not drawn) | inactive: 77%
CC(Nc1ncnc2c1cnn2-c1cccc(Cl)c1)c1ccccc1 (stereo not drawn) | inactive: 130%
COc1cccc(-c2nnc(SCC(=O)N3CCc4ccccc43)o2)c1 | inactive: 69%
CC(OC(=O)c1cccs1)C(=O)NCC1CCCO1 (stereo not drawn) | inactive: 105%
CCN(c1ccc(C)cc1C)S(=O)(=O)c1nnc(NC(=O)c2ccc(F)cc2)s1 | inactive: 20%
COc1ccc(CCN(Cc2cc3cc(C)ccc3n3nnnc23)C(=O)N(C)C)cc1OC | inactive: 103%
CCN(Cc1ccccc1)C(=O)CN1C(=O)COc2ccc(S(=O)(=O)N3CCOCC3)cc21 | inactive: 96%
COc1cccc(-c2cc(C(=O)Nc3ccc(OC)cc3OC)no2)c1 | inactive: 85%

Structure (SMILES) | survival
Cc1ccc2oc(=O)c(-c3nc(-c4cccs4)no3)cc2c1 | inactive: 94%
COc1ccc(-n2cnc3cc(C(=O)NCCC4=CCCCC4)ccc32)cc1 | inactive: 83%
COC(=O)c1ccccc1NC(=O)Cc1nc(-c2ccc(OC)cc2)no1 | inactive: 110%
Cc1nn(CCC(=O)Nc2cccc(C#N)c2)c(C)c1S(=O)(=O)N1CCC(C)CC1 | inactive: 69%
CCOCCCNC(=O)CCC(=O)NNc1nc2ccccc2c2nc(C)nn12 | inactive: 80%
Cc1nc2nc(SCC(=O)NCCc3ccc(Cl)cc3)nn2c(C)c1Cc1c(F)cccc1Cl | active: -2%
Cc1ccc(NC(=O)C2CCCN2S(=O)(=O)c2ccc3c(c2)n(C)c(=O)c(=O)n3C)cc1 (stereo not drawn) | inactive: 84%
O=C(Nc1cccc(C(=O)OCc2cc(=O)n3ccsc3n2)c1)c1ccc(F)cc1 | inactive: 123%
COc1ccc(OC)c(NC(=O)CN(c2ccccc2OC)S(=O)(=O)c2ccc(C)cc2)c1 | inactive: 82%
Cc1csc2nc(COC(=O)c3ccc(NC(=O)c4ccccc4Br)cc3)cc(=O)n12 | inactive: 124%
Cc1nn(CC(=O)NCc2ccco2)c(=O)c2nn(-c3ccccc3)c(C)c12 | inactive: 90%
CC(=O)N1CCc2cc(CNS(=O)(=O)c3ccccc3C(F)(F)F)ccc21 | inactive: 66%
CCCOc1ccc(C(=O)Nc2cccc(NC(=O)c3ccc(Cl)cc3Cl)c2)cc1 | inactive: 92%
CC(=O)Nc1ccc(NC(=O)c2c(-c3ccccc3)noc2C)cc1 | inactive: 70%
O=C(O)c1ccc(CSc2nc3cccnc3n2Cc2cccc(F)c2)cc1 | inactive: 81%
CCOc1cccc(C2Oc3nc(SC)nnc3-c3ccccc3N2C(C)=O)c1OC (stereo not drawn) | inactive: 68%
Cc1cc(C)cc(NC(=O)Cn2c(C)cc(C)c(C#N)c2=O)c1 | inactive: 72%
O=C(CSc1nc2ccccc2n1Cc1cccc(C(F)(F)F)c1)NCc1ccccc1 | inactive: 83%
COC(=O)CC1Oc2ccc(Cl)cc2-n2cc(-c3ccc(C)cc3)nc21 (stereo not drawn) | inactive: 73%
Nc1ncc(S(=O)(=O)N2CCN(c3ccccc3)CC2)cn1 | inactive: 129%
COc1ccc(Cl)cc1NC(=O)c1oc2ccc(S(=O)(=O)N3CCCCC3)cc2c1C | inactive: 76%
COc1ccc(N2CCN(C(=O)c3ccc(CS(=O)c4cccc(C)c4)o3)CC2)cc1 (stereo not drawn) | inactive: 83%

Structure (SMILES) | survival
Cc1ccc(S(=O)(=O)C(CNC(=O)C(=O)NCCc2ccc(F)cc2)c2cccs2)cc1 (stereo not drawn) | inactive: 80%
O=C(CSc1nc2c([nH]c3ccccc32)c(=O)n1-c1ccc(F)cc1)Nc1ccc2c(c1)OCO2 | inactive: 49%
COc1cc(NC(=O)CSc2ccc(-c3sc(C)nc3C)nn2)cc(OC)c1 | inactive: 23%
CCN1c2ccccc2-c2nc(SCC(=O)Nc3cc(C)c(Cl)cc3OC)ncc2S1(=O)=O | inactive: 81%
Oc1c(C(c2cccc(Cl)c2)N2CCOCC2)sc2nc(-c3ccco3)nn12 (stereo not drawn) | inactive: 91%
c1ccc2c(-n3cccn3)cccc2c1 | inactive: 119%
O=C(Nc1ccc(F)c(Cl)c1)C1CCN(c2ncccn2)CC1 | inactive: 82%
O=C1CC(=O)N(Cc2cccs2)C(=O)N1 | inactive: 97%
Cc1ccc(C)c(N2CCN(c3nc4ccccc4n4nnnc34)CC2)c1 | inactive: 89%
O=C(COc1ccc(F)cc1)NCc1ccc2c(c1)CCN2C(=O)c1ccc(F)cc1 | inactive: 67%
O=S(=O)(c1ccc(S(=O)(=O)N(Cc2cccs2)C2CCCCC2)cc1)N1CCCC1 | inactive: 97%
COc1ccc(CCNC(=O)c2c3c(nc4ccccc24)C(=O)N(C2CCCCC2)C3)cc1OC | inactive: 101%
Cc1cc(-n2c(C)nc3ccccc3c2=O)ccc1NC(=O)c1cccc([N+](=O)[O-])c1C | active: -2%
Cc1cccc(OCC(=O)Nc2ccc(S(=O)(=O)N(Cc3ccccc3)c3ccccc3)cc2)c1 | inactive: 82%
COCCn1c(=O)[nH]c2cc(C(=O)N3CCN(c4ccc(F)cc4)CC3)ccc2c1=O | inactive: 67%
Cc1cc(Br)cc(C)c1OCC(=O)Nc1ccc(S(=O)(=O)Nc2ncccn2)cc1 | inactive: 63%
CCc1nn(CC(=O)NCC(C)c2ccccc2)c(=O)c2cc3c(OC)cccc3n12 (stereo not drawn) | inactive: 89%
COC(=O)c1ccccc1NC(=O)C1CCCN(C(=O)c2cnn(-c3ccc(F)cc3)c2-n2cccc2)C1 (stereo not drawn) | inactive: 66%
Cc1oc(-c2ccccc2F)nc1Cn1c(SCc2cccc(Cl)c2)nc2ccncc21 | inactive: 51%
N#C/C(=C\c1ccc(-c2ccc(Br)cc2)o1)C(=O)Nc1ccccc1O | inactive: 74%
Cc1ccc(-n2ncc3c(N4CCN(Cc5ccccc5)CC4)ncnc32)cc1C | inactive: 79%
O=C(NCCc1csc(-c2ccc(C(F)(F)F)cc2)n1)c1ccccc1Cl | inactive: 70%
